Measurements as given in PubChem BioAssay AID1508623 (National Center for Advancing Translational Sciences (NCATS), 2021).
Screen size: about 48,000 compounds; about 450 (0.94%) were called active. About 19% were inconclusive and are not listed. Calls come from the whole dose curve; as a rule, active = well fitted inhibition curve with a large enough effect; inconclusive = small, poorly fitted or top-dose-only effect; inactive = no such curve, though single readings can be large or run the other way. Some of the results follow.

Test: Primary qHTS for Identification of Small Molecule Inhibitors of Huntingtin Promoter Activity; note: nearly all actives have a fitted effect of over 50% in size
Details: HEK293 HTT promoter firefly luciferase reporter (activity 0% = vehicle and -100% = no light), 24 h; series mostly up to 57.5 µM; activity change, negative = inhibition: at the top concentration
Method in brief: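 Quantitative HTS used concentration series of up to 57.5 uM final on HEK293 luciferase reporter cells, 24 h at 37 degrees C. Readout was Dual-Glo firefly luminescence.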

Activity change, negative = inhibition, inactive:
COc1cc(-c2nc3n(n2)C(c2ccc(F)cc2)C(C(N)=O)=C(C)N3)cc(OC)c1OC (stereo unspecified) 2.27%, COc1ccc(OC)c(CNC(=O)c2cc(-c3ccc(Cl)s3)nc3ccccc23)c1 -12.8%, Cc1ccc(-n2nc(C(=O)NCCc3cccc(C)c3)c3c4ccccc4n(C)c3c2=O)cc1 -5.2%, COc1ccccc1NC(=O)c1oc2ccccc2c1NC(=O)c1ccc(S(=O)(=O)N(C)C)cc1 1.06%, Cc1ccc(CNC(=O)c2cc(C3CC3)nc3c2c(C)nn3-c2cccc(Cl)c2C)cc1 2.84%, CCCN(CCC)C(=O)c1c[nH]c2ccc(S(=O)(=O)Nc3cc(C)cc(C)c3)cc2c1=O -3.79%, Cc1c(Cl)cccc1NC(=O)c1cc(-c2cccs2)on1 -15.8% [at 11.5 µM], CCOC(=O)c1c(C)[nH]c(C)c1S(=O)(=O)N(C)CC(=O)Nc1cccc(Cl)c1C -19.7%, COc1ccc(CN2CCCN(CC(=O)Nc3ccc(Br)cc3F)S2(=O)=O)cc1 1.72%, Cc1c(C(=O)N2CCC(C)CC2)c(S(=O)(=O)Nc2cccc(C#N)c2)c(C)n1C -21.6%, CCOc1ccc(NC(=O)CC2Nc3cccc4cccc(c34)NC2=O)cc1 (stereo unspecified) -7.08%, COc1ccc(C(=O)N2CCCCC2CCN2CCOCC2)cc1 (stereo unspecified) -7.37%, CC1=C(c2ccc(C)c(C)c2)S(=O)(=O)N=C1N1CCN(c2cccc(C)c2)C(C)C1 (stereo unspecified) -22.5%, CCOC(=O)c1ccc(NC(=O)C2=C(C)C(=O)OC23CCCCCC3)cc1 -14.1%, CC(C)Sc1ncc(Cl)c(C(=O)Nc2nc3ccc(S(C)(=O)=O)cc3s2)n1 -1.91%, O=C(c1ccccc1Cl)N1CCCC(c2nc3c(nnn3Cc3ccc(F)cc3F)c(=O)[nH]2)C1 (stereo unspecified) -27.9%, COc1ccc(NC(=O)Cn2c(=O)n(Cc3nc(C)no3)c(=O)c3cc4c(cc32)OCO4)cc1 -11.2%, COc1ccc(NC(=O)c2cc3c(=O)n(Cc4cccs4)ccc3nc2C)c(OC)c1 -6.32%, NC1[C@H]2CN(c3nc4c(cc3F)c(=O)c(C(=O)O)cn4-c3ccc(F)cc3F)C[C@@H]12 (stereo partly specified) 68.8%, Cc1ccc(-c2nc3cc(Cl)ccc3o2)cc1NC(=O)c1cc2ccccc2o1 14%, Cc1c(C(=O)N(C)C)sc2c1c(=O)n(-c1ccccc1C(F)(F)F)c(=O)n2Cc1ccccc1C#N -0.166%, CC(C)Cc1nn2c(=O)cc(COC(=O)c3cccc(NC(=O)c4cccs4)c3)nc2s1 -11.4%, COc1ccc(-c2nsc(NC(=O)COc3ccccc3OC)n2)cc1 -6.06%, COc1ccccc1CNC(=O)CCCn1c(=O)c2ccccc2n(CC(=O)Nc2ccc(C)cc2Cl)c1=O -7.18%, Cn1c(=O)n(Cc2ccccc2Cl)c(=O)c2c1nc1n2CCN1c1ccccc1 -0.361%, COc1cccc(CNC(=O)CSc2cc(C)[nH]c(=O)n2)c1 -1.56%, Cc1c(Cl)cccc1NC(=O)CSc1nc(=O)n(Cc2ccncc2)c2c1CCC2 -5.61%, Cc1ccc(C(=O)COC(=O)CCCC(=O)Nc2cc(C(F)(F)F)ccc2Cl)cc1C -10.2%, COc1ccc(C(=O)NCc2ccc3c(c2)CCN3C(C)=O)cc1OC -23.6%, CCn1ccc2cc(S(=O)(=O)N3CCCN(C(=O)Nc4ccc(C)cc4Cl)CC3)ccc21 -23%, Cc1cc(Nc2ccccc2F)n2nc(Cc3ccc(Cl)cc3)nc2n1 -18%, COc1cc2c(cc1OC)n(CC(=O)Nc1ccc(C)cc1C)c(=O)n1nc(-c3ccccc3)nc21 -12%, Cc1cccc(NC(=O)CSc2ncc3c(n2)-c2cc(Cl)ccc2N(C)S3(=O)=O)c1C -17.9%, CC(C)c1ccc(Nc2cc(C(=O)NCCCN(C)Cc3ccccc3)c3ccccc3n2)cc1 -5.78%, CC(=O)N1CCN(C(=O)C(=O)Nc2c3c(nn2-c2ccc(Cl)cc2)CSC3)CC1 -12.5%, CCc1ccc(OCC(=O)Nc2cc3oc4ccccc4c3cc2OC)c(Br)c1 -13%, COc1ccc(-c2nnc(SCC(=O)N3CCCCC3)o2)cc1 41.2%, O=C(COc1ccccc1)Nc1c(C(=O)N2CCN(c3ccc(F)cc3)CC2)oc2ccccc12 -5.36%, CC1CCN(C(=O)CN2c3ccc(Br)cc3-c3ccccc3S2(=O)=O)CC1 43.4%, O=C1CC(c2ccccc2)Cc2[nH]c(=O)c(C(=O)Nc3ccc(F)cc3)cc21 (stereo unspecified) -8.26%, CCOc1ccc(CCNC(=O)CCCc2nnc3n(CCCOC)c(=O)c4sccc4n23)cc1 -11.6%, Cc1c(C(=O)N2CCCCCC2)c(S(=O)(=O)Nc2ccc(OC(F)(F)F)cc2)c(C)n1C -25.5%, CCOC(=O)c1ccc(NC(=O)CSc2cc(-c3ccccc3)nc(C)n2)cc1 -21.5%, CC(C)CC(=O)Nc1nnc(S(=O)(=O)N(C)c2ccc(Cl)cc2)s1 -16.9%, Cc1c(-c2ccc(Cl)cc2)c(=O)oc2c(CN3CCN(C)CC3)c(O)ccc12 -12.7%, O=C(CNC(=O)c1ccccc1Cl)OCc1cc(=O)n2nc(C3CC3)sc2n1 -10.9%, CC1CCc2c(sc3nc(-c4cc5ccccc5oc4=O)nc(Cl)c23)C1 (stereo unspecified) -5.92%, CCOc1ccc(C2c3c(-c4ccccc4O)n[nH]c3C(=O)N2Cc2cccnc2)cc1OC (stereo unspecified) -9.39%, O=S(=O)(c1cccc2cnccc12)N1CCCNCC1, CC(C)c1nn2c(=O)cc(COC(=O)c3cccc(NC(=O)c4ccccc4F)c3)nc2s1 -11.1%, CCC1Oc2ccc(C)cc2N(CC(=O)NCc2ccc(F)cc2)C1=O (stereo unspecified) -18.2%, COc1cccc(CNC(=O)Cn2c(=O)cc(C(F)(F)F)c3c(C)nn(C)c32)c1OC -0.736%, CCOC(=O)c1ccc2c(c1)sc1nc(-c3ccc(OCC)cc3)cn12 -9.98%, CCN(CC)CCCNC(=O)c1c2c(nc3ccccc13)C(=O)N(C1CCCCC1)C2 -8.88%, COc1ccc(NC(=O)CCc2nc3cccnc3n2-c2ccccc2)c(OC)c1 -32.2%, COc1ccc(N2C(=O)C(CC(=O)Nc3ccc(Cl)cc3)N(Cc3ccc4c(c3)OCO4)C2=O)cc1 (stereo unspecified) -27.1%, CCOC(=O)c1c(NC(=O)c2cc(=O)c3cc(Cl)ccc3o2)sc(C)c1C 13%, COc1cc(C(=O)Nc2ccccc2OCc2cc(=O)n3c(C)csc3n2)cc(OC)c1OC -3.1%, CCN1CCN(C(c2ccc(C)cc2)c2sc3nc(-c4ccco4)nn3c2O)CC1 (stereo unspecified) 10.7%, CCOc1ccc(CCNC(=O)CSc2nnnn2-c2ccccc2Cl)cc1OCC -19.5%, COCCn1c(=N)c(C(=O)NCC2CCCO2)cc2c(=O)n3ccccc3nc21 (stereo unspecified) -0.395%, COc1cccc(NC(=O)CSc2cc(C)[nH]c(=O)n2)c1 1.42%, CCN(CC)c1nn2c(=O)c(C(=O)NCc3cccc(OC)c3OC)cnc2s1 8.27%, CCCNC(C)(C)COC(=O)c1ccccc1 7.44%, CC1N=C2c3ccccc3N=C(SCC(=O)NCc3ccc(Cl)cc3)N2C1=O (stereo unspecified) -24.1%, CCS(=O)(=O)N1CC(=O)N(c2cccc(C)c2C)C(C)(C(=O)NC2CCCCCC2)C1 (stereo unspecified) 7.9%, COc1ccc(CNC(=O)c2cnn(-c3ccc(OC)cc3)c2C2CCN(C(=O)OC(C)(C)C)CC2)cc1 -27%, Cc1nc(SCC(=O)Nc2ccccc2Cl)cc(-c2ccccc2)n1 -9%, Cc1c2cnn(-c3ccccc3)c(=O)c2c(C)n1CC(=O)N1CCN(c2cccc(Cl)c2)CC1 -11%, Cc1cccc2c1-c1sc(C(=O)Nc3ccccc3C(N)=O)cc1CO2 50.7%, Cc1c(C(=O)N(C)c2ccccc2)sc2nc(-c3ccc(F)cc3)cn12 22.6%, CCc1cc2c(cc3c(=O)n(CC(=O)NC4CCC(C)CC4)nc(CC)n32)s1 (stereo unspecified) 58.9%, O=C1c2oc3ccccc3c(=O)c2C(c2ccccc2F)N1Cc1ccc2c(c1)OCO2 (stereo unspecified) -8.05%, O=C(Nc1cccc2cccnc12)c1cccc2c(Br)cccc12 6.83%, CCN(CC)CCNC(=O)c1sc2nc(C)cc(C)c2c1-n1cccc1 1.99%, COc1ccc(-n2c(Cc3ccccc3)nnc2SCc2nc(-c3ccccc3C)no2)cc1 -29.6%, Cc1ccc2onc(CNC(=O)N(C)Cc3ccccc3)c2c1 -2.58%, COc1ccc(NC(=O)Cn2ccn(Cc3ccccc3)c(=O)c2=O)cc1Cl -36.5%, CCc1ccccc1NC(=O)Cn1c(C(=O)OC)cc2oc(C)cc21 -9.42%, CCOC(=O)c1ccc(NC(=O)c2cccc3c(=O)c4c([nH]c23)CCCC4)cc1 -6.92%, CN(C(=O)CSc1cn(CC(=O)N2CCCC2)c2ccccc12)c1ccccc1 -3.93%, O=C(Nc1ccc(Br)cc1F)c1ccc2nc(CCc3ccccc3)oc2c1 28%, O=C(Cn1ncc2c3ccccc3n(Cc3ccc(F)cc3)c2c1=O)NC1CCCCCC1 -10.3%, COc1ccc(Nc2nc(-c3ccccc3)c3cc(Br)ccc3n2)cc1 -3.16%, Clc1ccccc1CNc1nc2ccccc2c2nc(-c3ccccc3)nn12 3.79%, O=C(C1CCCCC1)N(Cc1cccnc1)c1nc2c(F)cccc2s1 -28%, Cc1ccc(C)c(NC(=O)N2CCN(c3nnc(C)c4c(C)n(-c5ccccc5)nc34)CC2)c1 -13%, COc1cc2c(cc1OC)C(COc1ccccc1OC)N(C(=O)c1ccc(S(=O)(=O)N3CCCC3)cc1)CC2 (stereo unspecified) -13.7%, CCOc1ccccc1NC(=O)c1c(NC(=O)Cc2ccccc2)sc2c1CCCC2 -4.89%, Cn1cc(C(=O)N2CCN(c3cccc(Cl)c3)CC2)c(=O)c2cc(S(=O)(=O)N3CCCC3)ccc21 -4.63%, COC(=O)c1cc(OC)c(OC)c(OC)c1NC(=O)c1cc(=O)n(C)c(=O)n1C 3.44%, CCOc1ccc(NC(=O)CSc2ccc3ccccc3n2)cc1 18.8%, COCCCNC(=O)CN1C(=O)COc2ccc(S(=O)(=O)N3CCOCC3)cc21 -10.6%, O=C(O)Cc1cccc2ccccc12, O=C(CCNS(=O)(=O)c1cccc2nonc12)Nc1ccc(F)cc1 -8.58%, COC(=O)c1cccc(Nc2c(-c3ccc(O)cc3)nc3nc[nH]n23)c1 0.921%
